# Laboratory results published in PubChem BioAssay AID1948 (National Center for Advancing Translational Sciences (NCATS), 2009).
# Among all 110,000 compounds or so, about 20 (0.02%) were called active. Inconclusive results, whose numbers are uncertain, are shown with a selection of clear calls. Calls come from the whole dose curve; as a rule, active = well fitted activation curve with a large enough effect; inconclusive = small, poorly fitted or top-dose-only effect; inactive = no such curve, though single readings can be large or run the other way. No potency is given beside an inconclusive call; the fits are too rough.
# Test: qHTS Assay for Compounds that Induce Erasure of Genomic Imprints;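 for activity change, positive = activation: 0% = negative control wells on the plate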
# Conditions: mouse ES Peg3-LacZ reporter, beta-gal luminescence, 40 h; activity change, positive = activation: at 10.9 µM (top of the series) unless noted
# Summary of the method: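 Each well holds 300 Peg3LacZ-Neo (maternal) female ES cells incubated 40 h at 37C, 5% CO2. LacZ is measured by BetaGlo luminescence, with AC50 and maximum efficacy derived from dose-response curves.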
# Potency is the fitted concentration of half-maximal effect; tags give direction and shape of the fitted curve.
Structure (SMILES),"activity change, positive = activation",Potency
CCOCCOCC,inactive: 3.09% [at 60.7 µM],
O=C(c1ccccc1)N1CCCOC1c1ccccc1 (stereo not drawn),,"inconclusive [activator, single point]"
Cc1cc(C(=O)Nc2sc3c(c2C#N)CCCCC3)cs1,inactive: -48.1% [at 60.7 µM],
Cn1c(=O)c(-c2cccs2)nc2cncnc21,inactive: -12.8% [at 60.7 µM],
S=c1[nH]c2ccc(Cl)cc2[nH]1,,"inconclusive [activator, single point]"
CCOC(=O)c1[nH]c(C)c(CCC(=O)N2CCN(c3cc(Cl)ccc3C)CC2)c1C,inactive: 2.25%,
COCCOC(=O)C1=C(C)NC(C)=C(C(=O)OC(C)C)C1c1cccc([N+](=O)[O-])c1 (stereo not drawn),,"inconclusive [activator, single point]"
CN(C(=O)c1cnc(N2CCOCC2)c2ccccc12)c1ccccc1F,inconclusive: 57.5% [activator],
CCOc1cc(C(=O)Nc2nnc3n2CCS3)cc(OCC)c1OCC,inconclusive: 33% [activator],
O=C(NCc1ccco1)C1CCN(C(=O)N2CCOc3ccc(Cl)cc32)CC1,inconclusive: 50.1% [activator],
CCOC(=O)CSc1nc2c(sc3ccccc32)c(=O)n1Cc1ccc(C)cc1,inconclusive: 37.2% [activator],
CCNc1ncc2nc(C)c(=O)n(C3CC3)c2n1,,"inconclusive [activator, full curve]"
CCc1nnc2c(Nc3cc(OC)c(Cl)cc3OC)nc3ccccc3n12,inactive: 7.38%,
O=C(Nc1ccc2c(c1)OCCO2)c1cncc(Br)c1,inactive: -63% [at 60.7 µM],
COc1cccc(N2CC(NC(=O)c3cccs3)CC2=O)c1 (stereo not drawn),inconclusive: 39.9% [activator],
CC1=C(C(=O)Nc2ccccc2)C(c2ccc(F)cc2)n2nc(SCc3cc(C)ccc3C)nc2N1 (stereo not drawn),inconclusive: 36.8% [activator],
CCOC(=O)c1nc(S(C)(=O)=O)ncc1N1CCOCC1,inactive: 2.76% [at 60.7 µM],
COc1ccc(NC(=O)c2cc(C3CC3)nc3c2c(C)nn3-c2ccccc2)c(OC)c1,inconclusive: 52.3% [activator],
Cc1ccc(N2CC(C(=O)Nc3cccnc3)CC2=O)cc1 (stereo not drawn),,"inconclusive [activator, single point]"
CCC1Oc2ccccc2N(CC(=O)NCc2ccccc2)C1=O (stereo not drawn),inconclusive: 41.5% [activator],
Cc1ccc(-n2nc(C(=O)N(C)c3ccccc3Cl)c3c4ccccc4n(C)c3c2=O)cc1,inconclusive: 31.9% [activator],
COc1ccc(CNC(=O)CCn2c(=O)c3cccn3c3ccc(F)cc32)cc1OC,inconclusive: 40.5% [activator],
Cn1c(=O)cc(N2CCc3ccccc32)[nH]c1=O,inactive: -2.49% [at 60.7 µM],
O=C(COc1ccc(F)cc1)Nc1cccc(OCc2cc(=O)n3ccccc3n2)c1,inactive: -11.5%,
Cc1cccc2c1-c1sc(C(=O)NCCCN3CCN(c4cccc(Cl)c4)CC3)cc1CO2,inactive: -31%,
CCOC(=O)C1=C(C)OC(N)=C(C#N)C1C1CCCCC1 (stereo not drawn),inactive: -15.1% [at 60.7 µM],

Structure (SMILES),"activity change, positive = activation",Potency
O=C(CCNS(=O)(=O)c1cccc2nsnc12)Nc1ccc2c(c1)OCCO2,,"inconclusive [activator, partial curve]"
Fc1ccc(C2=NC(c3cccc(C(F)(F)F)c3)=Nc3ccccc3N2)cc1,inactive: -12.9%,
COc1ccc(NC(=O)c2oc3ccccc3c2NC(=O)c2cc(OC)c(OC)c(OC)c2)cc1,inconclusive: 42.7% [activator],
COc1ccc(-n2nc(C(=O)N3CCN(c4cccc(C(F)(F)F)c4)CC3)c3c4ccccc4n(C)c3c2=O)cc1Cl,inconclusive: 33.9% [activator],
Clc1ccccc1-c1cc(NCc2cccnc2)ncn1,,"inconclusive [activator, full curve, poor fit]"
COc1ccc2cc3cc(C(=O)Nc4ccccc4C)oc3nc2c1,inconclusive: 37.4% [activator],
O=C(NCc1ccco1)c1c[nH]c2ccc(S(=O)(=O)Nc3ccc(F)cc3F)cc2c1=O,inconclusive: 31.7% [activator],
Cc1c(NC(C)C)c(=O)n(-c2ccccc2)n1C,,"inconclusive [activator, single point]"
Cc1sc(NC(=O)CSc2nc(N)n(CC(=O)c3ccccc3)n2)c(C#N)c1C,,"inconclusive [activator, single point]"
CC(NS(=O)(=O)c1ccccc1)C(N)=O (stereo not drawn),inactive: -1.78% [at 60.7 µM],
OCC1O[C@H](Oc2ccc(O)cc2)C(O)C(O)C1O (stereo partly drawn),,"inconclusive [activator, single point]"
CCOc1ccccc1NC(=O)c1nn(-c2ccc(OC)cc2)c(=O)c2c1c1ccccc1n2C,inconclusive: 48.4% [activator],
COc1ncc2nc(-c3cn(C)c4ccccc34)c(=O)n(C[C@H]3CCCO3)c2n1,,"inconclusive [activator, single point]"
CC(=O)c1cccc(Nc2ncnc3c2cnn3-c2cccc(Cl)c2)c1,inconclusive: 49.8% [activator],
CC(Oc1ccccc1)C(=O)Nc1cccc(-c2cn3cccnc3n2)c1 (stereo not drawn),inconclusive: 30.7% [activator],
COc1ccccc1C1C(C(=O)N2CCCCC2)=C(C)Nc2nc3ccccc3n21 (stereo not drawn),inconclusive: 32.4% [activator],
Cc1cccc2sc(N(Cc3cccnc3)C(=O)CCOc3ccccc3)nc12,inconclusive: 145% [activator],
Cc1ccc(CNC(=O)C2CCN(S(=O)(=O)c3ccc4nc5c(c(C(=O)O)c4c3)CC(C)CC5)CC2)cc1 (stereo not drawn),inconclusive: 46.3% [activator],
Cc1cc(C)cc(C(=O)NCCc2csc(-c3ccc(C(F)(F)F)cc3)n2)c1,inconclusive: 38.3% [activator],
O=C(c1cccc(F)c1)N1CCN(c2cccc(Cl)c2)CC1,inactive: -20.7% [at 60.7 µM],
Cc1ccc(NC(=O)Cn2c(=O)n(-c3ccccc3)c(=O)c3ccc(C(=O)NCc4ccc5c(c4)OCO5)cc32)cc1,inconclusive: 35.2% [activator],
CN(C)c1ncc2nc(-c3cccc(C#N)c3)c(=O)n(C[C@H]3CCCO3)c2n1,inactive: -11.5% [at 60.7 µM],
O=C(Nc1cccc(C(=O)OCc2cc(=O)n3c4c(sc3n2)CCCC4)c1)c1ccc(Cl)cc1,inactive: -1.87%,
COc1ccc(Cn2ccn(Cc3cccc(Cl)c3)c(=O)c2=O)cc1,inactive: -5.49%,
Cc1ccc(NC(=O)c2ccccc2C(=O)O)cc1C,inactive: -4.97%,
CN(C)c1ccc(/C=c2\sc3n(c2=O)CCCN=3)cc1,inactive: -78.9% [at 60.7 µM],

Structure (SMILES),"activity change, positive = activation",Potency
O=C(CSc1nc(=O)n(Cc2ccco2)c2c1CCC2)Nc1ccccc1C(F)(F)F,inconclusive: 40.7% [activator],
CCOC(=O)c1cc2c(=O)n3ccccc3nc2n(CCCOC)c1=NC(=O)C(C)(C)C,inactive: -8.31% [at 60.7 µM],
c1ccc(CSc2nncn2-c2ccccn2)cc1,,"inconclusive [activator, partial curve]"
CCn1c2ccccc2c2nc3cc(OC)c(OC)cc3nc21,inactive: -22.3% [at 60.7 µM],
COc1ccc(S(=O)(=O)N(CC(=O)Nc2ccccc2Cl)Cc2ccccc2)cc1,inactive: -15.9%,
Cn1c(=O)c(-c2ccccc2)nc2cncnc21,,"inconclusive [activator, partial curve]"
CCCCC(=O)OC1=C(C(=O)c2ccccc2)N(C)S(=O)(=O)c2ccccc21,inconclusive: 39.7% [activator],
Cn1c(=O)n(Cc2ccc(F)cc2)c(=O)c2c1nc1n2CCCN1C1CCCCC1,inactive: -4.39% [at 60.7 µM],
CCOC(=O)c1nnn(CC(=O)NC(=O)Nc2cccc(CC)c2)c1C(=O)OCC,inactive: 14.4%,
c1ccc(-c2ccc(-c3nc(-c4ccccn4)no3)cc2)cc1,inactive: -93.9% [at 60.7 µM],
Cc1nn(CCC(=O)N2CCN(c3ccccc3)CC2)c(C)c1S(=O)(=O)N1CCCC1,inconclusive: 45.1% [activator],
CC(=O)Nc1nnc(SCc2cc(=O)c3cccc(Cl)c3[nH]2)s1,inconclusive: 34.9% [activator],
N=C(N)SCc1cccc2c(=O)cc(-c3ccccc3)oc12,,"inconclusive [activator, single point]"
CCn1c(=O)cc(OCC(=O)NCc2ccco2)c2ccccc21,inactive: -18.7% [at 60.7 µM],
Cc1cccc(OC(=O)c2cc(-c3ccc(Cl)cc3)on2)c1C,inconclusive: 33.4% [activator],
COc1ccc2[nH]cc(CCNc3ncncc3-c3cccc(NS(C)(=O)=O)c3)c2c1,,"inconclusive [activator, partial curve]"
C1CCC2OC2C1 (stereo not drawn),,"inconclusive [activator, single point]"
CCCc1nccn1S(=O)(=O)c1cc(Br)ccc1OC,inconclusive: 31.5% [activator],
COCCn1c(=O)c(CCc2ccccc2)nc2cnc(OCc3ccccc3)nc21,inactive: -10.5% [at 60.7 µM],
Cc1noc(C)c1-c1nccc(N2CCN(C)CC2)n1,,"inconclusive [activator, full curve]"
CCNc1ncc2nc(-c3ccc(F)cc3)c(=O)n(CCc3ccccc3)c2n1,,"inconclusive [activator, partial curve]"
CC(=O)N1CCCC1c1nc2ccccc2n1Cc1cccc(Cl)c1 (stereo not drawn),inconclusive: 31.3% [activator],
COC(=O)c1c(NC(=O)c2nc(SCc3cccc(C)c3)ncc2Cl)sc2c1CCCC2,inconclusive: 41.3% [activator],
N#Cc1ccccc1-c1ccc2ncnc(NCc3cccnc3)c2c1,,"inconclusive [activator, full curve, poor fit]"
CCOC(=O)N1CCN(S(=O)(=O)c2ccc(OCC(=O)OC)c(C)c2)CC1,,"inconclusive [activator, single point]"
COCCNC(=O)CCc1c(C)nc2c(c(C)nn2-c2ccc(C)cc2)c1C,inconclusive: 31.5% [activator],
